Experimental data from the supplement of paper PMC10126150.
Sequences with one replicate were seen in a single cluster, so their values are uncertain.

Test system: ATP
Test: switch fluorescence ratio, 500 uM ATP over buffer (Cy3 cluster intensity, sum of 5 cycles each) (fold (ratio)); higher = stronger signal-on switching upon ATP binding; sequences stand for … in TCGTCGGCAGCGTCAGATGTGTATAAGAGACAGTTTTTTTTTTTTTTTTTTTTTTTTT…TC
Conditions: aptamer strand: ATP DNA aptamer (quencher-CACCTGGGGGAGTATTGCGGAGGAAGG + anchor), 100 nM annealed; ATP concentration: 500 uM; one replicate
Outline: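 Switching-strand clusters labelled with Cy3 on a modified Illumina MiSeq flow-cell were annealed to 100 nM quencher-labelled ATP aptamer, imaged in selection buffer, and re-imaged after 15 min with 500 uM ATP at 22 °C. This was done over five cycles with NaOH stripping and re-annealing in between. The fluorescence ratio is summed target-cycle over summed buffer-cycle Cy3 intensity per cluster, averaged per switch-domain sequence, excluding clusters outside 100-1000 RFU.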
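Further: ATP exposure 15 min at 22 °C before imaging.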

Sequence	switch fluorescence ratio
CCCATATGTT	1.03
CCCATCAAAT	1.08
CCCATGAGGT	1.03
CCCATGGTAA	1.02
CCCATTAATC	1.01
CCCCACTGGT	1.55
CCCCAGTATC	1.44
CCCCATATGA	1.08
CCCCCCCAC	4.08
CCCCCCCTGA	1.52
CCCCCCGCGG	2.18
CCCCGATAGA	1.11
CCCCGCGGGC	4.3
CCCCGGGAAT	1.07
CCCCGTGGGG	0.94
CCCCGTTGTT	1.23
CCCCTGAATA	1.08
CCCCTGCCGG	1.01
CCCCTTCCGG	1.52
CCCCTTTCTC	1.35
CCCGAACCGT	1.02
CCCGACTAAT	1.18

Sequence	switch fluorescence ratio
CCCGACTTCT	1.05
CCCGAGACAG	1.01
CCCGAGGGGG	0.981
CCCGAGGGTG	1.38
CCCGAGTTGA	1.08
CCCGATGGGC	0.982
CCCGCGTCTG	1.17
CCCGCGTGGT	0.975
CCCGCTGTTT	1.31
CCCGGAAGGG	1.16
CCCGGGCTC	0.984
CCCGGTAGCT	1.13
CCCGGTGTCA	1.29
CCCGTATGGG	1.03
CCCGTGAGTA	1.06
CCCGTTCAAG	0.973
CCCTACAGGT	1.6
CCCTAGGCCC	1.03
CCCTATACAG	1.04
CCCTCTGTCA	1.4
CCCTCTGTGC	2.3
CCCTGGGTAG	1.22

Sequence	switch fluorescence ratio
CCCTGGTCG	1.02
CCCTGTACAC	1.33
CCCTTAGGTT	1.06
CCCTTATGAC	1.05
CCCTTCAGCC	1.42
CCCTTGAGAG	0.994
CCCTTGCCCC	1.11
CCCTTGGTGA	1.99
CCCTTTCTAT	1.01
CCCTTTGCGT	1.04
CCCTTTGGGT	0.991
CCGAAAATAT	1.25
CCGAAAGAAA	1.11
CCGAAGATGG	1.37
CCGAAGGGCC	1.06
CCGAATGGTC	1.23
CCGACCATCT	2.54
CCGACGGTGG	1.01
CCGACTTAGT	1.19
CCGAGAAATT	2.39
CCGAGATGCT	1.96
CCGAGGCTGG	1.67

Sequence	switch fluorescence ratio
CCGAGGTATT	2.28
CCGAGTGAGG	1.02
CCGATGAGTA	1.23
CCGATGCCCT	1.44
CCGATTCCGG	1.05
CCGATTTACG	1.27
CCGATTTACT	1.55
CCGCACAGGG	1.93
CCGCAGGGGC	3.95
CCGCGCGACG	2.37
CCGCGCGCAG	5.08
CCGCGGACTT	1.2
CCGCGGCAG	2.43
CCGCGTAGC	1.31
CCGCGTGGGG	1.09
CCGCGTTGCC	1.44
CCGCTATGAT	4.73
CCGCTCTAGT	1.94
CCGCTGACAT	2.33
